Among the data in PubChem BioAssay AID463173 (ICCB-Longwood Screening Facility, Harvard Medical School, 2010) are survival values, retold here.

Molecules are shown by their SMILES. Screen size: about 52,000 compounds; about 4,300 (8.3%) were called active. Cut-off read from the data, not from the text of the source: active = survival mostly below about 52% (no sharp cut-off); inactive = mostly above about 56%. The list shows a part of the results.

For this assay, the system named is DeltatarO mutant. The assay is described as follows: growth inhibition of S. aureus wild type versus tarO mutant, primary screen, teichoic acid synthesis inhibitors, RN4220, OD600 (AID 463173). The settings on record: OD600, 18 h, active compounds read low, screened at 18.75 µg/mL (by protocol).
Turning to `O=C(CSc1n[nH]c(-c2ccccc2Cl)n1)N1CCN(c2ccccc2)CC1`, the survival was inactive: 94%.

Take `CCOC(=O)CNS(=O)(=O)c1cc(-c2nnc(Nc3cccc(O)c3)c3ccccc23)ccc1C`: the survival was active: 39%.

Regarding `C=CCN1Cc2c(sc3c2CCCC3)N(C(=O)c2ccccc2)C1`, the survival is inactive: 87%.

Regarding `CCCc1ccc(C2Sc3ccccc3NC3=C2C(=O)c2ccccc23)cc1` (stereo not given), the survival is inactive: 94%.

For `O=C(CSc1nc(-c2ccc(F)cc2)[nH]c1-c1ccccc1)NCC1CCCO1` (stereo not given), the survival was inactive: 82%.

Take `COc1ccc(-c2nnc(SCC(=O)NCc3ccc(C)cc3)nc2-c2ccc(OC)c(OC)c2)cc1OC`: the survival was inactive: 76%.

Take `CCCCOc1cccc(C2c3c(oc4ccccc4c3=O)C(=O)N2c2ccccn2)c1` (stereo not given): the survival is inactive: 73%.

For `CCS(=O)(=O)N1CCC(n2c(C(F)(F)F)nc3cccnc32)CC1`, the survival was inactive: 76%.

As for `CC(=O)Nc1ccc(-c2cn(CC(=O)NN)cn2)cc1`, the survival is inactive: 111%.

For the compound `COc1ccccc1N1CCN(c2ncccc2-c2nc(-c3ccc(Cl)cc3)no2)CC1`, the survival is inactive: 66%.

As for `N#CC(C#N)=Cc1ccc(-c2ccc3c(c2)COC3=O)o1`, the survival was inactive: 90%.

For the compound `CCc1ccc(C(=O)c2cn(CC(=O)Nc3ccc(OC)c(OC)c3)c3ccc(C)cc3c2=O)cc1`, the survival was inactive: 63%.

As for `Cc1cc(C)c(NC(=O)CSc2nc3nc(C)cc(C)n3n2)c(C)c1`, the survival was inactive: 141%.

Consider `CCOc1cc(/C=N/NC(=O)C(OC)c2ccccc2)ccc1O` (stereo not given), for which the survival is inactive: 91%.

Regarding `CCN(CC)c1cc(C)c2cc(NC(=O)c3ccccc3OC)ccc2n1`, the survival was active: 7%.

In the case of `CCCCn1c(SCC(=O)NCCCOC)nc2c(sc3ccccc32)c1=O`, the survival is inactive: 128%.

For `CCn1c(=O)c2sccc2n2c(CCCC(=O)N3CCN(c4cc(Cl)ccc4C)CC3)nnc12`, the survival was inactive: 73%.

Consider `Cc1ccc(NC(=O)/C=C/c2ccc(C)o2)c(C)c1`, for which the survival was inactive: 46%.

For the compound `Cc1cc(C)c2[nH]c(=O)c(CN(Cc3ccc(F)cc3)Cc3nnnn3CC3CCCO3)cc2c1` (stereo not given), the survival was inactive: 91%.

For `Cc1cccc(N2CCN(C(=O)c3cc4c(=O)oc5ccccc5c4s3)CC2)c1C`, the survival is inactive: 66%.

As to `Cc1cc(C(F)F)n2nc(C(=O)Nc3c(C)cccc3C)nc2n1`, the survival was inactive: 80%.

As to `CCOC(=O)c1ccc(CNS(=O)(=O)c2c(C)ccc3nsnc23)o1`, the survival was inactive: 77%.

`O=C(CCN1N=C(c2ccccc2)CCC1=O)NCCc1ccc(Cl)cc1`: the survival is inactive: 122%.

For `COCCN1C(=O)c2[nH]nc(-c3ccccc3O)c2C1c1ccc(Cl)c(Cl)c1` (stereo not given), the survival was active: 3%.

For the compound `CCCC1=Nc2cc(C(=O)NC(C)c3ccccc3)ccc2Sc2ccc(C)cc21` (stereo not given), the survival was inactive: 66%.
